Assay results taken from publication PMC12040169 (PLOS Biology, 2025).
This is one part of the list.

tested on: T1, C. trachomatis L2/434/Bu expressing GFP (CTL2-GFP); set-up: species or system HeLa; C. trachomatis total inclusion area by high-content imaging, normalised to DMSO; details: total inclusion area; 28.5 h, 10 µM; inhibitor
T1 construct: L2/434/Bu GFP intracellular growth in HeLa cells
Method in brief: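 High-content imaging followed the bulk GFP/resorufin measurement: fixed, Hoechst-stained cells were scored for GFP inclusions and host nuclei per well. Total inclusion area and count served as growth proxies, nuclei number as the viability proxy. MIC calculation matched the bulk assay.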

Row | SMILES | % of control remaining
1 | CCOc1ccc(C2CCCN2S(=O)(=O)c2c[nH]c(=O)[nH]c2=O)cc1 (stereo not drawn) [CBK285806] | 106.975
2 | CCCn1c(NCc2cccc(OC)c2O)nc2ccccc21 [CBK133763] | 93.0877
3 | Nc1nnc(-c2ccc(Oc3nc(N4CCOCC4)nc(N4CCOCC4)n3)cc2)s1 [CBK266305] | 138.549
4 | COc1ccccc1-c1ncc(OC2CCN(C)C2)nc1N (stereo not drawn) [CBK145081] | 100.822
5 | COc1ncc(-c2nccnc2OCc2cccs2)c(OC)n1 [CBK106750] | 103.239
6 | O=C(CSc1nnnn1-c1ccc(O)cc1)NC1CCCC1 [CBK295659] | 74.072
7 | CC(CO)(CO)Nc1ccc(C(F)(F)F)cc1[N+](=O)[O-] [CBK262806] | 44.1552
8 | Cc1cc(CSc2cccs2)no1 [CBK002635] | 87.8022
9 | Cc1ccc(NC(=O)CCC(=O)O)c(C(=O)c2ccccc2)c1 [CBK262611] | 114.97
10 | OCc1ccccc1-c1cncc(NCc2ccc3c(c2)OCO3)n1 [CBK065318] | 104.35
11 | CC(=O)Nc1ccc(Sc2ccccn2)cc1 [CBK085853] | 94.1306
12 | CC1CCN(C(=S)Nc2ccccc2)CC(C)(C)C1 (stereo not drawn) [CBK006185] | 73.6983
13 | c1ccc(Cc2nn3c(COc4ccccc4)nnc3s2)cc1 [CBK267163] | 117.661
14 | Cc1cc2ccccc2n2c(SCC(=O)NCc3ccco3)nnc12 [CBK265666] | 88.4184
15 | CC(=O)N1CCc2c([nH]c3c(C)cccc23)C12CCN(CCOc1ccccc1)C2 (stereo not drawn) [CBK039646] | 89.0627
16 | c1ccc(-n2cc(-c3cncn3CCCN3CCCCC3)cn2)cc1 [CBK281465] | 88.2978
17 | COC(=O)CCN(Cc1nnc(C2CC2)o1)C(C)C [CBK304470] | 45.6578
18 | COc1cccc(NC(=O)N[C@H]2CCN3C(=O)[C@@H](Cc4ccccc4)NC(=O)[C@H]23)c1 [CBK289230] | 67.9945
19 | CS(=O)(=O)c1ccc(-c2cccc(COC3CCN(C(=O)Cc4c[nH]cn4)CC3)c2)cc1 [CBK149515] | 89.2659
20 | CC(=O)Nc1ccc(CNC(=O)CN(C)Cc2nc(C3CC3)no2)cc1 [CBK306695] | 45.4801
21 | N#Cc1ccc(-c2cnc(N)c(-c3ccc(NC(=O)CCN4CCCCC4)cc3)n2)cc1 [CBK116418] | 76.5352
22 | NCCCCCCNc1ncnc2c1ncn2[C@H]1C[C@@H](O)[C@@H](CO)O1 [CBK201260] | 82.8528
23 | COc1cccc(C(=O)N2CCN(C(=O)c3cccc(F)c3)CC2)c1OC [CBK263316] | 110.015
24 | Cc1cc(Oc2ccc(N(C)C)cc2)cc(C2CCCNC2)n1 (stereo not drawn) [CBK283442] | 48.2112
25 | Cc1cc(O)nc(C(C)N2CCOC(C(C)(C)C)C2)n1 (stereo not drawn) [CBK304097] | 85.6063
26 | C(=N\Nc1ccc2nn(-c3ccccc3)nc2c1)/c1c[nH]c2ccccc12 [CBK261064] | 99.8654

Row | SMILES | % of control remaining
27 | COC(=O)c1ccccc1NC(=O)Cn1cncc1-c1ccc([N+](=O)[O-])cc1 [CBK266741] | 90.4933
28 | CCCCC1CCC(C(=O)O)CC1 (stereo not drawn) [CBK122493] | 90.5333
29 | C[C@H]1[C@@H]2[C@@H](O)C([C@H](C)C(=O)N3CCCC3)CC[C@@]2(C)CC[C@@H]1NC(=O)C1CC1 (stereo partly drawn) [CBK289447] | 101.611
30 | CCCn1c(SC(C)C(=O)c2cc(C)n(-c3ccc(Cl)cc3)c2C)n[nH]c1=O (stereo not drawn) [CBK295595] | 66.7687
31 | Cc1cccc(N(C)S(=O)(=O)c2ccc(N3CCCNCC3)c3ccccc23)c1C [CBK004430C] | 39.3013
32 | O=[N+]([O-])c1ccccc1S(=O)(=O)N1CCN(Cc2cccnc2)CC1 [CBK264168G] | 58.5211
33 | O=C1C(=CNCc2ccco2)C(=O)c2ccccc21 [CBK262688] | 104.207
34 | CC(=O)c1cccc(NC(=O)C2CCCN(S(=O)(=O)c3ccc(Cl)cc3)C2)c1 (stereo not drawn) [CBK266847] | 110.963
35 | COCCN(Cc1cc2cccc(C)c2nc1O)S(C)(=O)=O [CBK269395] | 82.7438
36 | O=C(Nc1cccc(-c2noc(CCc3ccccc3)n2)c1)c1cccs1 [CBK270225] | 104.362
37 | CC(NC(=O)c1ccc(-n2cccc2)cc1)c1ccccn1 (stereo not drawn) [CBK296619] | 102.886
38 | N#C/C(C(=O)Nc1ccccc1)=C(/O)c1nn(-c2ccccc2)c2c1CSc1ccccc1-2 [CBK017685] | 89.7864
39 | O=C(Cn1ccc2ccc(F)cc21)Nc1cccc(-n2cnnc2)c1 [CBK282570] | 105.545
40 | O=C1NC2(CCc3ccccc31)CCN(C(=O)CCn1cccn1)C2 (stereo not drawn) [CBK283352] | 104.246
41 | O=c1[nH]c2ccccc2c(O)c1C1=Nc2ccccc2S(=O)(=O)N1 [CBK019929] | 104.741
42 | O[C@@H]1CN(Cc2ccccc2F)CC[C@H]1N1CCCC1 [CBK282934] | 103.55
43 | CCc1ccc(CNC(=O)Cn2nnc(-c3ccc(CNCC4CC4)cc3)n2)cc1 [CBK161032C] | 17.3583
44 | C#CCNC(=O)C1CCCN(c2nc3ccccc3n2C)C1 (stereo not drawn) [CBK282336] | 84.6942
45 | O=c1[nH]c2ccccc2n1CCCN1CCC[C@@H]1CN1CCCC1 [CBK137111T] | 107.291
46 | CC(C)c1c(O)c2ccccc2[nH]c1=O [CBK159988] | 108.012
47 | Cc1noc(C)c1C(=O)N1CCCCCC1c1nn(C)cc1Cl (stereo not drawn) [CBK285106] | 76.8516
48 | O=C(c1cccs1)N(Cc1ccco1)Cc1cc2ccccc2nc1O [CBK269602] | 105.756
49 | CC(C)N(Cc1cnn(C)c1)C(=O)c1cc(C2CC2)nc2ccccc12 [CBK305325] | 72.9358
50 | COc1ccc(F)cc1-c1cccc(CC2(C(=O)NCCc3ccccc3)CCOCC2)c1 [CBK285562] | 102.258
51 | CCc1nccn1CC(=O)N(C)C1CCCN(Cc2ccccc2F)C1 (stereo not drawn) [CBK306928] | 72.1908
